Measured values: PMC5089861
Substitutions are numbered along the chain they refer to. These are yes or no findings as the source states them, for the method shown. For part of these data: Binding seen in cells or lysates may run through a third protein. Some results given as binding are weak or reduced against the parent protein; the word gives no strength. For part of these data: Where a sequence is shown, tags or fusion partners need not be part of it.

Chains of the proteins cited; added tags and fusions are not shown. Lines headed by an entry give the natural chain unless they say otherwise; changes in a name come on top.
UniProt G5E8K5: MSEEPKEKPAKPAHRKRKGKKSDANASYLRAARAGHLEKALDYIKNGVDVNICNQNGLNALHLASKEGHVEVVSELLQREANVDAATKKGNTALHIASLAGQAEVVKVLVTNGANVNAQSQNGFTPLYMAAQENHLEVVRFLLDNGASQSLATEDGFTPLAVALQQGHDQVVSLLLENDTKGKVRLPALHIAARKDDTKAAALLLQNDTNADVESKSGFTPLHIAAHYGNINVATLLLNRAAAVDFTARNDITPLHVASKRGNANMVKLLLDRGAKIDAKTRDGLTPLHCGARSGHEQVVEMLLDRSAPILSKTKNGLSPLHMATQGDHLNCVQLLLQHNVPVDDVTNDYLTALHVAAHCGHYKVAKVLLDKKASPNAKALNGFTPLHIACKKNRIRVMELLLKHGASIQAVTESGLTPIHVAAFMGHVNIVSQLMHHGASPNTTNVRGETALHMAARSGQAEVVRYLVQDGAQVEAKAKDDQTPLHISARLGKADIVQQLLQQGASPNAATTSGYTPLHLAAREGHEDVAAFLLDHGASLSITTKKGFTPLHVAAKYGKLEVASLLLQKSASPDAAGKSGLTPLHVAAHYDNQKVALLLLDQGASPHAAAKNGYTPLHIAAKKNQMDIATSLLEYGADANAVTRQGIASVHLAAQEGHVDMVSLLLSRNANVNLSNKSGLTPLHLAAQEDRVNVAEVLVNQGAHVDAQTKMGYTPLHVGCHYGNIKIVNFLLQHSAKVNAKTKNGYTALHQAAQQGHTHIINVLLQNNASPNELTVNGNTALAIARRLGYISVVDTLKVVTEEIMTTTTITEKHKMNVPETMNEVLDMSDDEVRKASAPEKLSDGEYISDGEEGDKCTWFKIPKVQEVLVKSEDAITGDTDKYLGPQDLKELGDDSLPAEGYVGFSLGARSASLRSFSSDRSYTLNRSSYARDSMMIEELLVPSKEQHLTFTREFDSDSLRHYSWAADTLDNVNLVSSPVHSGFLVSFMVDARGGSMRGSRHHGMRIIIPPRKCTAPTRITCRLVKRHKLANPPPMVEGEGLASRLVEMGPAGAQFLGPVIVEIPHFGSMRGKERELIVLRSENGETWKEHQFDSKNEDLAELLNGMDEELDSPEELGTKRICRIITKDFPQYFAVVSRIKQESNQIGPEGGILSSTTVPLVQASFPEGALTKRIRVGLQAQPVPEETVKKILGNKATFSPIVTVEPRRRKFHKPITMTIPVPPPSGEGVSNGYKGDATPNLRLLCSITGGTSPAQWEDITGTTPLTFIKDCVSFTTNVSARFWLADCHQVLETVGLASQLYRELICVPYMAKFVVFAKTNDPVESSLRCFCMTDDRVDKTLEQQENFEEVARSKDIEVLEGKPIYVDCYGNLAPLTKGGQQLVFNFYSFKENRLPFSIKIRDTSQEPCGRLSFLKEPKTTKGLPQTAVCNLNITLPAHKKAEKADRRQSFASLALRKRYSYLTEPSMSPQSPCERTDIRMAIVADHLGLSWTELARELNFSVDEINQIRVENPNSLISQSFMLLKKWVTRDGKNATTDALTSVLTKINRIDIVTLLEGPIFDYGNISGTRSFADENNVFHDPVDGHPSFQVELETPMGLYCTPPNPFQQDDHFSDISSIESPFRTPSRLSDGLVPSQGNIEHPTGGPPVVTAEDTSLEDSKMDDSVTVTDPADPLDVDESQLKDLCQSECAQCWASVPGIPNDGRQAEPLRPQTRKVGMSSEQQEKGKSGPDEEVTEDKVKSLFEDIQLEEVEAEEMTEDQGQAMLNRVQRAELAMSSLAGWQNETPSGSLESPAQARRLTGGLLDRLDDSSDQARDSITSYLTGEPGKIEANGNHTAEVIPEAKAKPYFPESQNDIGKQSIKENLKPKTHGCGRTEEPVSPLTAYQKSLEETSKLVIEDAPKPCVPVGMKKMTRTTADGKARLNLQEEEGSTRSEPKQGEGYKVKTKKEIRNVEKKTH

What was measured:
[1] = target: full length E1537K AnkB-HA (UniProt Q01484); test: co-IP; HEK293 cells transfected with both plasmids, lysed in 0.5% Triton X-100, 10 mM sodium phosphate, 0.32 M sucrose, 2 mM EDTA; mouse anti-HA or rabbit anti-GFP with protein A/G Dynabeads; Western blot
full length WT AnkB-HA = full length WT AnkB-HA (UniProt Q01484); test: as above
[2] = target: full-length endogenous AnkG of mouse embryonic fibroblasts (mouse (endogenous in MEFs)) (UniProt G5E8K5); test: co-IP; endogenous proteins from WT MEF lysates (PBS, 150 mM NaCl, 0.32 M sucrose, 2 mM EDTA, 0.1% Triton X-100, 0.1% sodium deoxycholate, 0.1% SDS); antibodies against AnkB, AnkG, RabGAP1L or control IgG; Western blot
[3] = target: total AnkB in brain and skeletal muscle of PND30 mice (mouse (endogenous in brain and skeletal muscle)) (UniProt Q8C8R3); test: proximity ligation; Duolink kit on deparaffinized sections of PND30 mouse brain and skeletal muscle, antibodies against total AnkB and RabGAP1L
[4] = target: T1, AnkB death domain E1537K, GAL4 DNA-BD bait (human) (UniProt Q01484); test: two-hybrid; AnkB DD wild-type or mutant baits (pGBKT7) with RabGAP1L C-terminal domain in pGADT7; plates -Leu, -Trp, -His, -Ade with 125 ng/ml Aureobasidin A
T1 sequence: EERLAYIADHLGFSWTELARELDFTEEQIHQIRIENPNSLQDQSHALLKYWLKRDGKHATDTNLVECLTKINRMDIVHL

[5] = target: T2, AnkB death domain (aa1485-1563), GAL4 DNA-BD bait (human) (UniProt Q01484); test: as above
T2 sequence: T1 sequence with K53E

With “WT RabGAP1L-GFP (from UniProt A6H6A9 1-815)” the binding [1] was “no binding” and the binding (full length WT AnkB-HA) was “binds”.

With “endogenous RabGAP1L (93 kDa), mouse (from UniProt A6H6A9 1-815)” the binding [2] was “no binding” and the binding [3] was “binds”.

“RabGAP1L TBC-C-terminal domain (residues E507-L815), pGADT7 prey (from UniProt A6H6A9 507-815) (domain or fragment)” was tested, and the binding [4] was “no binding” and the binding [5] was “binds”.
